Experimental findings from the GPR68 mutational scans of Howard et al. (2025) are described below.

Sequences and labels used below:
B1: GPR68, Q15743 (parent)
chain: MGNITADNSSMSCTIDHTIHQTLAPVVYVTVLVVGFPANCLSLYFGYLQIKARNELGVYLCNLTVADLFYICSLPFWLQYVLQHDNWSHGDLSCQVCGILLYENIYISVGFLCCISVDRYLAVAHPFRFHQFRTLKAAVGVSVVIWAKELLTSIYFLMHEEVIEDENQHRVCFEHYPIQAWQRAINYYRFLVGFLFPICLLLASYQGILRAVRRSHGTQKSRKDQIQRLVLSTVVIFLACFLPYHVLLLVRSVWEASCDFAKGVFNAYHFSLLLTSFNCVADPVLYCFVSETTHRDLARLRGACLAFLTCSRTGRAREAYPLGAPEASGKSGAQGEEPELLTKLHPAFQTPNSPGSGGFPTGRLA

In data set [1] the parent is B1. The data set can be described thus: cAMP reporter score (Enrich2 score, wild type = 0); higher = more signal; HEK293T, FACS bins.
Data set [2] covers variants of B1. The data set can be described thus: surface expression score (Enrich2 score, wild type = 0); higher = more signal; HEK293T, FACS bins.

Scores with a large standard error are left out. The source holds two more conditions with little spread; they are left out. Read del as a deletion of the residues named and ins as an insertion between two positions. For part of these data: How much ogerin was present is not stated here.

With A122_V123del, the cAMP reporter score was -1.26 in data set [1] (pH 5.5); -1.13 in data set [1] (pH 6); -2.24 in data set [1] (pH 6, modulator: ogerin); -0.784 in data set [1] (pH 6.5, modulator: ogerin). The surface expression score in data set [2] was -2.34.

As for Q131_F132insGS, the cAMP reporter score in data set [1] (pH 5.5) was -0.215; in data set [1] (pH 6), -0.511; in data set [1] (pH 6, modulator: ogerin), -0.632; in data set [1] (pH 6.5, modulator: ogerin), -0.611. Further, in data set [2], the surface expression score is -3.07.

Take T134_L135insGS: the cAMP reporter score was -0.774 in data set [1] (pH 5.5); 0.361 in data set [1] (pH 6); -0.545 in data set [1] (pH 6, modulator: ogerin); -0.415 in data set [1] (pH 6.5, modulator: ogerin). In data set [2], the surface expression score was -2.99.

For V117Y, the cAMP reporter score is -2.51 in data set [1] (pH 5.5); -1.96 in data set [1] (pH 6, modulator: ogerin); -1.94 in data set [1] (pH 6.5, modulator: ogerin). For the same variant, the surface expression score in data set [2] was -1.91.

As to V117I, the cAMP reporter score in data set [1] (pH 5.5) was 0.539; in data set [1] (pH 6), 0.897; in data set [1] (pH 6, modulator: ogerin), 0.637; in data set [1] (pH 6.5, modulator: ogerin), -0.017.

Regarding V117P, the cAMP reporter score in data set [1] (pH 5.5) was -2.72; in data set [1] (pH 6) it was -0.913; in data set [1] (pH 6.5, modulator: ogerin), -1.74. For the same variant, the surface expression score in data set [2] was -2.16.

V117Q: the cAMP reporter score in data set [1] (pH 5.5) was -0.413; in data set [1] (pH 6), -0.668; in data set [1] (pH 6, modulator: ogerin), -0.699; in data set [1] (pH 6.5, modulator: ogerin), -0.875.

Regarding V117K, the cAMP reporter score in data set [1] (pH 5.5) is -0.153; in data set [1] (pH 6) it was -0.707; in data set [1] (pH 6, modulator: ogerin), -0.571; in data set [1] (pH 6.5, modulator: ogerin), 0.068. Further, in data set [2], the surface expression score was -1.41.

As to V117G, the cAMP reporter score in data set [1] (pH 5.5) is -2.48; in data set [1] (pH 6), -0.854; in data set [1] (pH 6, modulator: ogerin), -0.79; in data set [1] (pH 6.5, modulator: ogerin) it was -0.922. Also, the surface expression score in data set [2] was -2.76.

On to V117D, for which the cAMP reporter score is -1.97 in data set [1] (pH 5.5); -0.954 in data set [1] (pH 6); -0.597 in data set [1] (pH 6, modulator: ogerin); -1.43 in data set [1] (pH 6.5, modulator: ogerin). The surface expression score in data set [2] was -1.85.

As to V117N, the cAMP reporter score is -2.31 in data set [1] (pH 5.5); -0.693 in data set [1] (pH 6); -1.21 in data set [1] (pH 6, modulator: ogerin); -1.25 in data set [1] (pH 6.5, modulator: ogerin). The surface expression score in data set [2] was -2.6.

Consider V117C, for which the cAMP reporter score is -0.579 in data set [1] (pH 5.5); -0.36 in data set [1] (pH 6, modulator: ogerin); -0.63 in data set [1] (pH 6.5, modulator: ogerin). In data set [2], the surface expression score was -0.671.

As for V117L, the cAMP reporter score in data set [1] (pH 5.5) is -0.669; in data set [1] (pH 6) it was 0.618; in data set [1] (pH 6, modulator: ogerin) it was 0.092. In addition, the surface expression score in data set [2] was -0.736.

Regarding V117A, the cAMP reporter score in data set [1] (pH 5.5) is 0.453; in data set [1] (pH 6), 0.386; in data set [1] (pH 6, modulator: ogerin), 0.567; in data set [1] (pH 6.5, modulator: ogerin), -0.31.

In the case of V117T, the cAMP reporter score in data set [1] (pH 5.5) is -0.407; in data set [1] (pH 6.5, modulator: ogerin), -0.431.

In the case of V117W, the cAMP reporter score was -0.434 in data set [1] (pH 5.5); -1.15 in data set [1] (pH 6); -1.89 in data set [1] (pH 6, modulator: ogerin); -1.93 in data set [1] (pH 6.5, modulator: ogerin). In data set [2], the surface expression score was -1.68.

With V117H, the cAMP reporter score was -0.404 in data set [1] (pH 5.5) and -0.671 in data set [1] (pH 6, modulator: ogerin).

Regarding V117S, the cAMP reporter score in data set [1] (pH 5.5) is -1.57; in data set [1] (pH 6), -1.44; in data set [1] (pH 6, modulator: ogerin), -1.03; in data set [1] (pH 6.5, modulator: ogerin), -1.53. Further, the surface expression score in data set [2] was -1.91.

Consider V117E, for which the cAMP reporter score in data set [1] (pH 5.5) is -1.62; in data set [1] (pH 6), -1.47; in data set [1] (pH 6, modulator: ogerin), -1.81; in data set [1] (pH 6.5, modulator: ogerin), -1.39. Further, the surface expression score in data set [2] was -2.19.

Turning to V117F, the cAMP reporter score is 0.125 in data set [1] (pH 5.5) and -0.604 in data set [1] (pH 6, modulator: ogerin). Moreover, the surface expression score in data set [2] worked out at 0.411.

V117M: the cAMP reporter score in data set [1] (pH 5.5) is -0.474; in data set [1] (pH 6) it was 0.032; in data set [1] (pH 6, modulator: ogerin), -0.649; in data set [1] (pH 6.5, modulator: ogerin), -0.504. In addition, the surface expression score in data set [2] is -0.471.

Take R119_L121del: the cAMP reporter score in data set [1] (pH 5.5) is -0.651; in data set [1] (pH 6) it was 0.017; in data set [1] (pH 6, modulator: ogerin) it was -0.782; in data set [1] (pH 6.5, modulator: ogerin), -0.516. The surface expression score in data set [2] is -3.1.

As for S116_V117insG, the cAMP reporter score in data set [1] (pH 5.5) is -1.85; in data set [1] (pH 6), -0.028; in data set [1] (pH 6, modulator: ogerin), -1.46; in data set [1] (pH 6.5, modulator: ogerin), -0.611. Also, the surface expression score in data set [2] was -1.78.

For the variant R119_Y120insG, the cAMP reporter score in data set [1] (pH 5.5) was -1.99; in data set [1] (pH 6) it was -0.861; in data set [1] (pH 6, modulator: ogerin), -2.11; in data set [1] (pH 6.5, modulator: ogerin), -1.67. Besides, the surface expression score in data set [2] is -2.54.

In the case of F129_H130insGS, the cAMP reporter score was -1.32 in data set [1] (pH 5.5); -1.68 in data set [1] (pH 6, modulator: ogerin); 0.416 in data set [1] (pH 6.5, modulator: ogerin). In addition, the surface expression score in data set [2] was -1.83.

Consider Y120_L121insGS, for which the cAMP reporter score is -3.35 in data set [1] (pH 5.5) and -1.17 in data set [1] (pH 6).

As for V123_A124insG, the cAMP reporter score in data set [1] (pH 5.5) is -2.23; in data set [1] (pH 6), -1.24; in data set [1] (pH 6.5, modulator: ogerin), -2.27.

With R133_T134insGSG, the cAMP reporter score in data set [1] (pH 5.5) was -0.67; in data set [1] (pH 6) it was -1.19; in data set [1] (pH 6, modulator: ogerin), -0.991; in data set [1] (pH 6.5, modulator: ogerin) it was -0.908. In addition, in data set [2], the surface expression score is -2.85.

Turning to F132del, the cAMP reporter score is -1.86 in data set [1] (pH 5.5); -1.68 in data set [1] (pH 6); -2.09 in data set [1] (pH 6, modulator: ogerin); -1.76 in data set [1] (pH 6.5, modulator: ogerin). In addition, the surface expression score in data set [2] was -2.31.

Consider F132_R133insGS, for which the cAMP reporter score in data set [1] (pH 5.5) was -0.801; in data set [1] (pH 6) it was -0.234; in data set [1] (pH 6, modulator: ogerin), -0.058; in data set [1] (pH 6.5, modulator: ogerin), -1.03. In data set [2], the surface expression score was -2.88.

With Q131L, the cAMP reporter score in data set [1] (pH 5.5) was -0.598; in data set [1] (pH 6), -1.16; in data set [1] (pH 6, modulator: ogerin), -0.534; in data set [1] (pH 6.5, modulator: ogerin), -0.547. Further, in data set [2], the surface expression score was -2.77.

As for Q131H, the cAMP reporter score in data set [1] (pH 5.5) was 0.089; in data set [1] (pH 6), -1.03; in data set [1] (pH 6, modulator: ogerin), -0.295; in data set [1] (pH 6.5, modulator: ogerin) it was -0.46. In addition, the surface expression score in data set [2] was -1.03.

For the variant Q131C, the cAMP reporter score in data set [1] (pH 5.5) was 0.324; in data set [1] (pH 6.5, modulator: ogerin), -1.04. Moreover, in data set [2], the surface expression score was -0.443.

Consider Q131G, for which the cAMP reporter score was 1.28 in data set [1] (pH 5.5); -0.132 in data set [1] (pH 6); 2.34 in data set [1] (pH 6, modulator: ogerin); 0.327 in data set [1] (pH 6.5, modulator: ogerin). Besides, the surface expression score in data set [2] was -0.107.
